The other results are listed elsewhere or left out. The exact form of the protein is not confirmed.

This assay has as its target GST-SBP-ILF3 (Homo sapiens) (UniProt Q12906). In words: targeted RNA Bind-n-Seq. The conditions noted are these: RBNS binding buffer: 25 mM Tris pH 7.5, 150 mM KCl, 3 mM MgCl2, 0.1% Tween, 0.5 mg/mL BSA, 1 mM DTT; 27 nM protein, 750 pM RNA pool; temperature not stated; high values mean tight binding; sequences stand for … in GGGUAAAAGCGAGGUGAA…CGGGACAAGUAUUAUGGG
On to “GGUGGUGGUGUUGGUGUCUAACACCGCUAC [gtspaired]”, for which the binding signal (log2 fold change) was -0.681.

For the sequence “GGUUGUGGUGUUGGUCUCUAACACCGCGAC [gtspaired]”, the binding signal (log2 fold change) is -0.488. Regarding “UUUUUUUUUUGAGAUCGGAACGGUCUUCUA [tttttgagapaired]”, the binding signal (log2 fold change) was determined as 0.118.

For “UUCUCUUCUCCUCCGGGGGAGGGGGAGAGA [ctspaired]”, the binding signal (log2 fold change) was -0.684. Consider “UUUUUUUUUUGAGACCGAAGCGGUCUUCUG [tttttgagapaired]”, for which the binding signal (log2 fold change) was found to be 0.82. Consider “UUUUUUUUUUGAGAUGGUGUCUAUCUCCGG [tttttgagapaired]”, for which the binding signal (log2 fold change) came out at 0.644. With “UUUUUUUUUUGAGAACGGGCCGUUCUCCUA [tttttgagapaired]”, the binding signal (log2 fold change) turned out to be 0.279. Take “UUCCUCCUUCCUCCGCUGGAGGGAGGGGGA [ctspaired]”: the binding signal (log2 fold change) was -0.243.

Turning to “UUUUUUUUUUGAGAUGGGAGCCAUUUCCAG [tttttgagapaired]”, the binding signal (log2 fold change) came to 0.506. “UUUUUUUUUUGAGACCGACACGGUCUUCUA [tttttgagapaired]”: the binding signal (log2 fold change) was 0.433.

For “GUGUGUGGUGUUGGACUCUAACACCGCGCG [gtspaired]”, the binding signal (log2 fold change) was -0.542. With “UUUUUUUUUUGAGACGGAGACCGUUUCCUA [tttttgagapaired]”, the binding signal (log2 fold change) came to 0.652.

For the sequence “UUUUUUUUUUGAGAACGGGUCGUUCUCCGG [tttttgagapaired]”, the binding signal (log2 fold change) worked out at 0.424. As to “GUGUGUUGUGUUGGACCCUAACACAACGCA [gtspaired]”, the binding signal (log2 fold change) is -0.508. For “UUUUUUUUUUGAGACGGGGGCUGUCUCCAG [tttttgagapaired]”, the binding signal (log2 fold change) was 1.03. On to “GUGGUUGGUGUUGGCCCCUAACACCAGCCG [gtspaired]”, for which the binding signal (log2 fold change) is -0.256. With “UUUUUUUUUUGAGAGCGACACGCUCUCCUA [tttttgagapaired]”, the binding signal (log2 fold change) is -0.148. With “UUUUUUUUUUGAGACUGUUGCAGUCUCCUG [tttttgagapaired]” the figure was 0.542; with “GGUUGGUGUGUUGGUCUCUAACACAUCGAC [gtspaired]”, -0.692; with “UUUUUUUUUUGAGAGCGUAUCGCUCUUCUA [tttttgagapaired]”, 0.213. For “GGUGGUUGUGUUGGCCUCUAACACAACUAC [gtspaired]”, the binding signal (log2 fold change) was -0.619. For the sequence “UUUUUUUUUUGAGACGGUUUCUGUCUCCAG [tttttgagapaired]”, the binding signal (log2 fold change) was determined as 0.419.

Take “GUGUUGUGUGUUGGUUCCUAACACACAGCA [gtspaired]”: the binding signal (log2 fold change) is -0.324.

Turning to “GGUUGUGGUGUUGGCUCCUAACACCGCAGC [gtspaired]”, the binding signal (log2 fold change) was -0.653.

For the sequence “UUUUUUUUUUGAGAGUGGGGCAUUCUUCUA [tttttgagapaired]”, the binding signal (log2 fold change) amounted to 0.479. Take “GUGGUGUGUGUUGGAACCUAACACAUACCA [gtspaired]”: the binding signal (log2 fold change) was -0.291. As for “UUUUUUUUUUGAGAUGGAGUCCAUCUCCUA [tttttgagapaired]”, the binding signal (log2 fold change) came out at 0.0655. With “GUGGUUGGUGUUGGAUUCUAACACCGACCG [gtspaired]”, the binding signal (log2 fold change) was -0.586.

Turning to “UUUUUUUUUUGAGAGGGAAUCCCUCUUCUA [tttttgagapaired]”, the binding signal (log2 fold change) was -0.25. On to “GGUGGUUGUGUUGGUACCUAACACAGCUAC [gtspaired]”, for which the binding signal (log2 fold change) is -0.462. As for “UUUUUUUUUUGAGAACGGAUCGUUCUCCGG [tttttgagapaired]”, the binding signal (log2 fold change) stood at 0.216. The figure for “GUUGUGUGUGUUGGUACCUAACACACGCGA [gtspaired]” is -0.58; for “UUUUUUUUUUGAGAGUGGGUCAUUCUCCUA [tttttgagapaired]” it is 0.316. For “UUUUUUUUUUGAGAUCGGAGCGAUCUCCAG [tttttgagapaired]”, the binding signal (log2 fold change) turned out to be 0.458. With “UUUUUUUUUUGAGAGUGUAACACUCUCCGG [tttttgagapaired]”, the binding signal (log2 fold change) is -0.0193. On to “UUUUUUUUUUGAGAGGGAUCCCUUCUCCAG [tttttgagapaired]”, for which the binding signal (log2 fold change) is 0.0953. For the sequence “GGUUGUGGUGUUGGUAUCUAACACCGCAGC [gtspaired]”, the binding signal (log2 fold change) was -0.296. The figure for “UUUUUUUUUUGAGAGCGGUACGUUCUUCUA [tttttgagapaired]” is 0.376. For the sequence “UUUUUUUUUUGAGAUGGGAACCAUCUUCUG [tttttgagapaired]”, the binding signal (log2 fold change) is 0.274.

“GGUGGUGGUGUUGGUUCCUAACACCAUCGC [gtspaired]”: the binding signal (log2 fold change) was -0.425. Consider “UUUUUUUUUUGAGAGCGGUCCGUUCUCCUA [tttttgagapaired]”, for which the binding signal (log2 fold change) was found to be 0.597.

For the sequence “UUUUUUUUUUGAGACGGAGUCCGUUUCCAG [tttttgagapaired]”, the binding signal (log2 fold change) worked out at 0.538. The figure for “GUGGUGUGUGUUGGUCCCUAACACAUACCG [gtspaired]” is -0.672; for “UUUUUUUUUUGAGACUGGAUCAGUUUCCUG [tttttgagapaired]” it is 0.698.

Turning to “GUUGGUGGUGUUGGUAUCUAACACCGCCAG [gtspaired]”, the binding signal (log2 fold change) was -0.279. For “GUGGUGUGUGUUGGUACCUAACACACAUCG [gtspaired]”, the binding signal (log2 fold change) was -0.322. Consider “GGUGGUUGUGUUGGUCUCUAACACAAUCGC [gtspaired]”, for which the binding signal (log2 fold change) is -0.645.

As to “UUUUUUUUUUGAGAGCGUGACGCUCUCCUG [tttttgagapaired]”, the binding signal (log2 fold change) is 0.158.

Regarding “UUUUUUUUUUGAGACCGAAGCGGUCUCCAG [tttttgagapaired]”, the binding signal (log2 fold change) was 0.53. As to “UUUUUUUUUUGAGAGCGGGACGUUCUCCAG [tttttgagapaired]”, the binding signal (log2 fold change) stood at 0.454. For “UUUUUUUUUUGAGAGCGAAACGUUCUCCUA [tttttgagapaired]”, the binding signal (log2 fold change) is -0.017. The figure for “GGUGUUGGUGUUGGCGUCUAACACCAGCGC [gtspaired]” is -0.341. In the case of “GUGGUGUGUGUUGGAGCCUAACACAUACUA [gtspaired]”, the binding signal (log2 fold change) was -0.606. As for “UUUUUUUUUUGAGACUGGGCCAGUCUCCUG [tttttgagapaired]”, the binding signal (log2 fold change) came out at 0.564. For the sequence “UUUUUUUUUUGAGAGGGCCCCCCUCUCCUG [tttttgagapaired]”, the binding signal (log2 fold change) came to 0.818.

As for “GGUGGUUGUGUUGGCACCUAACACAGCCGC [gtspaired]”, the binding signal (log2 fold change) was -0.315. Regarding “UUUUUUUUUUGAGAUGGUUUCCAUUUCCGG [tttttgagapaired]”, the binding signal (log2 fold change) came to 0.275. As to “UUUUUUUUUUGAGAUCGUAACGAUCUCCGG [tttttgagapaired]”, the binding signal (log2 fold change) was 0.446. “UUUUUUUUUUGAGACGGCUUCCGUCUCCGG [tttttgagapaired]”: the binding signal (log2 fold change) worked out at 0.421. Regarding “GUGUGGUGUGUUGGAGCCUAACACAUCACA [gtspaired]”, the binding signal (log2 fold change) is -0.17. With “UUUUUUUUUUGAGAUCGAAACGAUCUCCUA [tttttgagapaired]” the figure was 0.0395. For “UUUUUUUUUUGAGACCGGGACGGUCUUCUG [tttttgagapaired]”, the binding signal (log2 fold change) was determined as 0.737. With “UUUUUUUUUUGAGACUGUUCCAGUCUCCAG [tttttgagapaired]” the figure was 0.367; with “GUGUUGUGUGUUGGCUUCUAACACACAGCG [gtspaired]”, -0.684; with “UUUUUUUUUUGAGAACGGAGCGUUCUUCUA [tttttgagapaired]”, 0.0975. With “UUUUUUUUUUGAGACGGCAUCCGUCUCCUA [tttttgagapaired]” the figure was 0.569.

These data come from paper PMC5892938.
